Some of the results follow.

This assay relates to PfSIP2 AP2 domain 1 (GST-tagged). Kind of assay: gcPBM binding intensity (ln(normalized median fluorescence intensity)); higher = stronger DNA binding. The gist of the method: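 In this array assay, P. falciparum DNA-binding domains with a GST tag, expressed in E. coli, were applied for 1 h to primer-extended double-stranded 36-bp intergenic genomic probes and negative controls on an Agilent 4 × 180k array. Bound protein was visualised with Alexa488 anti-GST antibody at 488 nm. Binding intensity is the highest Masliner-normalised natural-log median intensity across replicate spots of either probe orientation.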
On to “TCCTCTTCAATATATATATATTATAAATAAATAAAT [CACACA_negctrl_site1756]”, for which the “gcPBM binding intensity (ln)” value stood at 7.34.
In the case of “TGTACATATATATATATAATAATAGTTATGTTTATT [CACACA_negctrl_site1474]”, the “gcPBM binding intensity (ln)” value is 7.14.
As for “TTTTTTTATAGCTAAACACACATAAGAATATATGTT [CACACA_site1099]”, the “gcPBM binding intensity (ln)” value came out at 6.91.
Regarding “CTATAATATAGGTATACACACATATTATAGAATATT [CACACA_site7696]”, the “gcPBM binding intensity (ln)” value is 6.83.
For “ATATAAAATAGACACGCACACAAAAAAAAAAAAAAA [CACACA_site3522]”, the “gcPBM binding intensity (ln)” value was 7.13.
For the sequence “TATGTCAAAAAATAATGTACAAAAAAATTAACATAA [XGTACX_site5463]”, the “gcPBM binding intensity (ln)” value came to 6.88.
In the case of “TATATATGGAAAAGGTGTACATTCAATATATATATA [XGTACX_site3167]”, the “gcPBM binding intensity (ln)” value is 8.82.
With “TTTATTTTGTAGTGTACACATATATATATATATATA [CACACA_site5843]”, the “gcPBM binding intensity (ln)” value came to 9.09.
On to TATATTTTTTTTCTAGTGCATATTATTAATTAAGTT, for which the “gcPBM binding intensity (ln)” value is 8.81.
As for “TGAGTATTTTTTTAATGTACTTATATTAAAAGGAAA [XGTACX_site6286]”, the “gcPBM binding intensity (ln)” value came to 6.92.
Consider “TACAAAATAAGACATGCATGTTATACATATATATTT [TGCATGCA_site321]”, for which the “gcPBM binding intensity (ln)” value was 6.89.
On to “AAAATATTATTTTGTTGTACATATAAAATTTTAAGC [XGTACX_site1866]”, for which the “gcPBM binding intensity (ln)” value was 7.26.
Regarding “AAACAAAAAAGAAACACACACTAATTAAATTTTCTT [CACACA_site4746]”, the “gcPBM binding intensity (ln)” value was determined as 6.74.
In the case of “TAAATTAATAAAAAGTGTACATAATATACATATATA [XGTACX_site8604]”, the “gcPBM binding intensity (ln)” value amounted to 7.02.
Then TACAATACCGTACAGGTGCAACTAGCCAAAAAAAAG, with 10.2; and “ATAATTAAAAAAGGAATATATATATATATATATATA [GTGCAC_negctrl_site343]”, with 9.3.
For the sequence “CGTATGACATAATATTGTACTTTTGATATACATCAT [XGTACX_site7366]”, the “gcPBM binding intensity (ln)” value is 6.97.
As to TTTAATAATATTTAGGTGCTATATATTATATGTATA, the “gcPBM binding intensity (ln)” value is 7.34.
With “ATAAATCATAAGGAGAGTACATAAATAAAATAATCA [XGTACX_site8825]”, the “gcPBM binding intensity (ln)” value is 6.91.
Regarding “AAGTGGCATATAAGTAAAAAATATATACAAGTATAT [GTGCAC_negctrl_site427]”, the “gcPBM binding intensity (ln)” value turned out to be 6.99.
For the sequence “TATTAAAGATACTCGGTATAAATAAATTTTAATGTG [XGTACX_negctrl_site239]”, the “gcPBM binding intensity (ln)” value was 6.92.
Take “CTCAATATATTTGATTTACACACTTACAATGTATAT [CACACA_site8982]”: the “gcPBM binding intensity (ln)” value was 7.15.
As for “ACAACATGCACACGCACACACAAAAAAAGCATGCAT [CACACA_site6185]”, the “gcPBM binding intensity (ln)” value amounted to 7.74.
The value for “ATGCTTATTATTTATTGTACTGAATAAATATATCTG [XGTACX_site4483]” was 6.92.
“TATAAAAAATATAATTGTACATAAAGGTTAAAATGT [XGTACX_site6138]”: the “gcPBM binding intensity (ln)” value was determined as 7.2.
Turning to “TTATTTCTACCTTTTTGTACACATTATTATGAAACC [XGTACX_site5325]”, the “gcPBM binding intensity (ln)” value stood at 7.58.
The value for “TTTAAATATTACATATGTACTTATAAATATATATAT [XGTACX_site1284]” was 8.21.
Take “AAGGAATAGGCATATACACACAGGTACAGATATATA [CACACA_site4402]”: the “gcPBM binding intensity (ln)” value stood at 6.92.
“AAAAAAAAAAAAAACACACAAATCATAAATAAATAT [CACACA_site6362]”: the “gcPBM binding intensity (ln)” value amounted to 7.32.
Turning to “AAAAAAAAAATTGAAAGTACAAATATGTATTATATA [XGTACX_site2455]”, the “gcPBM binding intensity (ln)” value is 6.71.
The value for “TAATAGTATATAAAAAGTACATAATAAGATATGAAA [XGTACX_site1000]” was 7.12; that for “ATTATGTGCCAATACACACACACATATATATATATA [CACACA_site468]” was 9.36.
As for “TAAAATATGTCATGTGGTACATGAATAGCTTTTATT [XGTACX_site3809]”, the “gcPBM binding intensity (ln)” value is 6.8.
Then TTTTTGTTATATAAAGTGCAGTGACAAGCAGTTTAA, with 7.77.
The value for “AGTGGTGTTAAATGTTGTACGATTTTGTGTTATTCG [XGTACX_site178]” was 7.04; that for “ATTTAAGCATTATTTTGTACGAAAATAAAAAAATGA [XGTACX_site6958]” was 7.23; that for “ATATAAAAAAATAAAACACACACATATATATTATAT [CACACA_site8909]” was 7.17.
Consider “TATAATGCTCTTCTTTGTACATATTATGATTATATT [XGTACX_site2332]”, for which the “gcPBM binding intensity (ln)” value was 7.15.
With “AAAGGAAAATGTGTAAAAAGAAATGCTAGGTATATA [GTGCAC_negctrl_site699]”, the “gcPBM binding intensity (ln)” value came out at 6.81.
Then “ATATATATATAATATAGTACGTATAATATATGAATC [XGTACX_site4385]”, with 8.32; and “AGTCTGAATAAAATTACACACATATACAGATATATA [CACACA_site5054]”, with 6.91.
“ATATCATTTTCTAGCACACACATTGTTATTACCTTG [CACACA_site902]”: the “gcPBM binding intensity (ln)” value was 7.3.
In the case of “TTTCTAAAAATAAGAACACACACATATAAGCATATA [CACACA_site8714]”, the “gcPBM binding intensity (ln)” value came out at 7.01.
The value for “TTTTTTTAAATATACACACACATTTATACAGATATA [CACACA_site5811]” was 7.12; that for “TATTAGAACATATATGCATGCAATAGATATTCCAAT [TGCATGCA_site297]” was 6.81.
Turning to “TATGTATAATTTCATTGTACTTTTGATATTATCATA [XGTACX_site280]”, the “gcPBM binding intensity (ln)” value was found to be 6.96.
As to “TATGTAACAAAAAAAAGTACACATATATATAGTGTA [XGTACX_site7772]”, the “gcPBM binding intensity (ln)” value is 6.99.
With “AAGATAATCACAAAATGTACAGGAAATATGACAACC [XGTACX_site3607]”, the “gcPBM binding intensity (ln)” value came out at 7.33.
The value for ACTGCGTTTTTACACGCGCACTGCAATGAACAATAT was 8.05; that for “AATGGTATAAACAATACACACATAATATATATATTG [CACACA_site4997]” was 6.77; that for “AAGAAAAAGGAACGGAAAAACAAACAAGGGGCCCAA [TGCATGCA_negctrl_site4]” was 6.66.
On to “TTTTCTAAATTAATAATACACACTTGCTAAAATCAT [CACACA_site3207]”, for which the “gcPBM binding intensity (ln)” value is 6.91.
Then “TATATGTTTTATAGTACACACATAAATGGACATACT [CACACA_site2191]”, with 7.06.
“TGAATTTAGATATATACACACAAAAGTATATACAAT [CACACA_site2804]”: the “gcPBM binding intensity (ln)” value was 6.83.
Turning to “CCCACTAAAAAACACACACACACACCCATATATATA [CACACA_site6140]”, the “gcPBM binding intensity (ln)” value was determined as 7.53.
As to “ATATGTATTAAGTGTACACATATAATCTATCTTGTT [CACACA_site5329]”, the “gcPBM binding intensity (ln)” value was 7.29.
Then “TTTTTTTTATATAGTAGTACTAATTAGAATTTTTAT [XGTACX_site7476]”, with 6.78.
Consider “TACATACATACATACACACATACATATGTATATATA [CACACA_site2480]”, for which the “gcPBM binding intensity (ln)” value is 7.84.

For the origin of these results see the supplement of paper PMC11417369.
